{"source": "patent US20170368082A1", "about": "“FORMULATIONS OF BRINCIDOFOVIR” (priority 2016, published 2017)", "experiment": "Phase 2 toxicokinetics of brincidofovir and cidofovir in plasma", "assay_type": "in vivo, Sprague-Dawley CD rats", "conditions": "brincidofovir 15 mg/kg 2-h IV infusion, BLQ imputed as zero", "method": "Plasma samples (108) were collected 2 hours following the initiation of dosing on Day 1 and Day 7 (Group 1), or at 1, 2, 8, and 24 hours following the initiation of dosing on Day 1, and prior to administration and at 2, 8, and 24 hours following the initiation of dosing on Day 7 (Groups 2 and 3), and analyzed to determine the concentrations of brincidofovir and the metabolite, cidofovir), by LC/MS/MS.\nApproximately 0.4 mL of whole blood was obtained via the tail vein from each animal at each time point. Animals were not fasted prior to blood collection. Blood was collected into tubes containing K2EDTA anticoagulant and placed on wet ice in an upright position, per facility SOP prior to processing. Plasma was separated by centrifugation (10 minutes at approximately 2000 g, at approximately 2-8° C.). Approximately 0.10 mL of plasma was transferred into a single cryotube appropriately labeled with study number, animal number, time point, date of sampling and sample type. Remaining plasma was transferred into a second cryotube and retained as a backup sample. Plasma frozen at approximately −80±10° C. within approximately 2 hours after collection of each blood sample until analysis. Animals were euthanized (CO2 inhalation) after the final blood collection.\nIn general, TK parameters were estimated using mean plasma concentrations of brincidofovir and cidofovir derived from the composite blood sampling design using Phoenix WinNonLin (V 6.3).\nA composite blood sampling design was used such that each rat was sampled twice per sampling day. Blood was collected via tail vein from unanesthetized animals into tubes containing anticoagulant and placed on wet ice in an upright position. Animals were not fasted prior to blood collection. Plasma was separated by centrifugation (for 10 minutes at approximately 2000 g, at approximately 2-8° C.), and transferred into individually labeled cryotubes. All cryotubes containing the collected plasma samples were appropriately labeled as to study number, animal number, time point, date of sampling and sample type. All plasma samples were obtained and frozen at approximately −80° C. (±10° C.) within approximately 2 hours after collection of each blood sample until analysis.\nRat plasma bioanalysis was conducted by Pyxant Laboratories. Plasma samples were analyzed for concentrations of brincidofovir and cidofovir using a method based upon protein precipitation extraction followed by LC-MS/MS analysis; calibration ranges for brincidofovir and cidofovir were 1.00-1500 ng/mL and 5.00-750 ng/mL, respectively, (Pyxant study number 3025) for a 50 μL aliquot of rat plasma. Sample analysis for ISR was not performed as part of this non-GLP study.\nFor the generation of Mean Profiles, all sample concentrations that were below the limit of quantitation (BLQ) were set to 0.\nAll pharmacokinetic parameter estimates were completed using a Non-Compartmental Model (Model 200-202 for IV infusion administration). The AUClast and AUCinf were calculated using the linear up log down trapezoidal rule.", "note": "Where “and” joins values, the source holds several entries; their conditions need not be identical. Equal values may be shown once. The source gives many values for each of these; only a part stands here.", "data": [{"smiles": "Nc1ccn(C[C@@H](CO)OCP(=O)(O)O)c(=O)n1", "note": "[Cidofovir]", "values": [{"measurement": "Imputed Concentration, Mean", "setting": "female rats, Day 7, 8 h", "result": 43.6}, {"measurement": "Imputed Concentration, individual animals", "setting": "female rats, Day 7, 8 h", "result": 40.2}, {"measurement": "Imputed Concentration, Mean", "setting": "female rats, Day 7, 24 h", "result": 20.3}, {"measurement": "Imputed Concentration, individual animals", "setting": "female rats, Day 7, 24 h", "result": "30.0 and 7.10 and 23.8"}, {"measurement": "Imputed Concentration, Mean", "setting": "male rats, Day 7, 8 h", "result": 32.8}, {"measurement": "Imputed Concentration, Mean", "setting": "male rats, Day 7, 24 h", "result": 21.7}, {"measurement": "Imputed Concentration, individual animals", "setting": "male rats, Day 7, 24 h", "result": "27.2 and 17.9 and 19.9"}]}]}
